Measured values published in PubChem BioAssay AID588855 (National Center for Advancing Translational Sciences (NCATS), 2011).
Several values for one entry are separate records, joined by “and”; a condition that tells them apart may be missing. Identical values can stand only once. Screen size: about 410,000 compounds; about 5,000 (1.2%) were called active. The shares of active, inactive and inconclusive entries below differ from those in the screen. The call rests on the fitted dose curve; in most records, active means well fitted inhibition curve with a large enough effect; inconclusive means small, poorly fitted or top-dose-only effect; inactive means no such curve, though single readings can be large or run the other way. Potencies of inconclusive entries are doubtful fits and often do not repeat.

Experiment: qHTS for Inhibitors of TGF-b; further: nearly all actives have a fitted effect of over 65% in size
Conditions: HepG2 CAGA-GFP TGF-b/SMAD3 reporter, GFP fluorescence, 18 h, TGF-beta stimulated, 500 pg/mL final; series mostly up to 46.1 µM; activity, negative = inhibition: at the top concentration
In short: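 Inhibition of TGF-beta-driven CAGA-GFP reporter expression in HEPG2 cells is measured by cellular GFP fluorescence after 18 h stimulation with 500 pg/mL recombinant TGF-beta in 1% FBS medium at 37 degrees C.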
On the % scale 0 is the no-effect control and ±100 the full control effect; potency means the concentration at half of the fitted maximal effect; tags describe the fitted curve by direction and shape.

SMILES	Potency	activity, negative = inhibition
Cc1ccc(C(=O)Nc2cccc(C(F)(F)F)c2)cc1Nc1cncnc1	inconclusive: 10 µM [inhibitor, partial curve, poor fit]	
CCC(CC)C(=O)Nc1nc2c(s1)CC(C)CC2 (configuration not stated)		inactive: -27.7%
CCOC(=O)C1=C(O)C(=O)N(c2ccc(S(N)(=O)=O)cc2)C1c1ccc(OC)cc1 (configuration not stated)	inconclusive: 11.2 µM [inhibitor, partial curve, poor fit]	
COc1ccc(-n2nnnc2C2CCN(S(=O)(=O)c3ccc(C(C)(C)C)cc3)CC2)cc1	inconclusive: 0.1 µM [inhibitor, full curve, poor fit]	
COc1cc(CC(=O)N2CCc3ccccc32)cc(OC)c1OC	inconclusive: 15.8 µM [inhibitor, single point]	
COc1ccc(Cn2c(-c3ccccc3C)nc3c(c(=O)c4ccccc4n3C)c2=O)cc1	inconclusive: 28.2 µM [inhibitor, single point]	
COc1ccc(OCC(=O)Nc2c(C(=O)N3CCC(N4CCCCC4)CC3)oc3ccccc23)cc1		inactive: -1.88%
Cc1ccc2nc(SCC(=O)Nc3cccc(F)c3)nc(=O)n2c1	inconclusive: 0.631 µM [inhibitor, partial curve, poor fit]	
COc1ccc(C(=O)Nc2nnc(SCC(=O)NCc3ccco3)s2)cc1OC	inconclusive: 35.5 µM [inhibitor, single point]	
Cc1ccc(-n2cc(CNCCN3CCOC3=O)c(-c3ccc(F)cc3)n2)cc1	inconclusive: 25.1 µM [inhibitor, single point]	
CC(NC(=O)CN1CCN(c2ccc(Cl)cc2)CC1)c1ccccc1 (configuration not stated)	inconclusive: 12.6 µM [inhibitor, partial curve]	
Cc1cc(N)n2ncc(-c3cccc(Br)c3)c2n1	inconclusive: 35.5 µM [inhibitor, partial curve, poor fit]	
COc1cccc(CNC(=O)c2cc(C)nc3c2c(C)nn3-c2cccc(F)c2)c1		inactive: 1.69%
CCOc1ccc(S(=O)(=O)Nc2cc(OC)ccc2OC)cc1	inconclusive: 15.8 µM [inhibitor, partial curve, poor fit]	
COc1ccc(S(=O)(=O)Nc2ccc3c(c2)CCCN3S(=O)(=O)c2ccc(C)cc2)cc1F	inconclusive: 12.6 µM [inhibitor, partial curve, poor fit]	
O=C(CN1CCN(c2cccc(Cl)c2)CC1)Nc1ccc([N+](=O)[O-])cc1C(=O)Nc1ccccc1F		inactive: -0.0407%
CCc1ccc(OCC(=O)N/N=C/c2cc([N+](=O)[O-])ccc2N2CCOCC2)cc1		inactive: -4.43%
CCn1c(C)c(C)c2cc(C(=O)NCCc3ccco3)ccc21		inactive: -7.53%
CCOC(=O)c1ccc(NC(=O)Nc2cc3c(cc2N2CCCC2)n(C)c(=O)n3C)cc1	inconclusive: 25.1 µM [inhibitor, single point]	
CC1CCN(CCC(=O)N2CCCc3c2c(=O)oc2ccc(O)cc32)CC1	inconclusive: 1 µM [inhibitor, full curve]	
Cc1sc2nc(-c3ccc(Br)cc3)oc(=O)c2c1C		inactive: -3.22%
COCCN(CCOC)Cc1cc(=O)oc2cc(C)cc(C)c12		inactive: -15.2%
CCn1ccc2c(OCC(=O)Nc3ccccc3C)cccc2c1=O	inconclusive: 0.112 µM [inhibitor, full curve, poor fit]	

SMILES	Potency	activity, negative = inhibition
CC1=NN(c2ccccc2)C(=O)/C1=C\c1cn(CCC#N)nc1-c1ccc(Cl)cc1	inconclusive: 8.91 µM [inhibitor, partial curve, poor fit]	
CCOc1ccc(CCN2C(=S)N([C@@H](CC(C)C)CN3CCCC3CN3C(=S)NC[C@@H]3Cc3ccc(O)cc3)C[C@@H]2CC(C)C)cc1 (some centres not stated)	active: 4.47 µM	
NC(=O)c1ncn([C@@H]2O[C@H](CNCc3cccc4c3sc3ccccc34)[C@@H](O)[C@H]2O)n1	inconclusive: 35.5 µM [inhibitor, single point]	
CCCOC(=O)c1ccc(NC(=O)c2ccccc2OC)cc1		inactive: 0.0841%
Nc1ccc2c(c1)C=C/C2=C\c1ccccc1		inactive: 3.33%
CN(Cc1ccc(Cl)c(Cl)c1)C(=O)c1cccc(S(=O)(=O)N2CCN(Cc3ccccc3)CC2)c1	inconclusive: 11.2 µM [inhibitor, partial curve]	
O=C(CBr)N1CCc2ccccc2C(c2ccccc2)C1 (configuration not stated)	inconclusive: 22.4 µM [inhibitor, partial curve, poor fit]	
O=C(Nc1ccccc1)Nc1nnc(SCc2ccc(Cl)cc2)s1		inactive: 15.2%
Cc1ccc(N2CCN(S(=O)(=O)c3ccc(F)c(C(=O)Nc4ccc(Cl)cc4Cl)c3)CC2C)cc1 (configuration not stated)		inactive: 8.98%
CCc1cccc(C)c1NC(=S)NCC1CCN(c2ccc(OC)cc2)C1 (configuration not stated)	inconclusive: 35.5 µM [inhibitor, single point]	
OCc1cn(-c2ccccc2)nc1-c1ccc(Br)cc1	inconclusive: 12.6 µM [inhibitor, partial curve, poor fit]	
CC1Cc2ccccc2N1Cc1cc(=O)c(OCC(=O)NCCc2ccccc2)co1 (configuration not stated)		inactive: -2.38%
O=C(NCCNC(=O)c1ccco1)c1ccc(Cl)c(Cl)c1		inactive: 12.9%
N#C/C(=C/c1cn(-c2ccccc2)nc1-c1cccc(OCc2ccc(F)cc2)c1)C(=O)NCCCn1ccnc1	inconclusive: 35.5 µM [inhibitor, single point]	
CCc1c(C)sc2c1CCN(C(=O)Nc1ccc(F)c(Cl)c1)C2c1ccc(F)cc1 (configuration not stated)	inconclusive: 17.8 µM [inhibitor, single point]	
COc1cc(C(=O)NCc2ccc(S(N)(=O)=O)cc2)ccc1OCC(=O)Nc1cccc(C(F)(F)F)c1		inactive: -17.9%
Cc1ccc(-c2cn(-c3ccccc3F)c(=S)[nH]2)cc1	inconclusive: 20 µM [inhibitor, single point]	
Cc1ccc(-c2csc(NC(=O)CSc3nc4ccccc4c(=O)n3CCCN(C)C)n2)cc1	inconclusive: 35.5 µM [inhibitor, single point]	
COc1ccc(CCNC(=O)CCn2c(=O)c3ccccc3n(CC(=O)Nc3ccc(C)cc3C)c2=O)cc1OC	inconclusive: 35.5 µM [inhibitor, single point]	
OC1(c2cccc(C(F)(F)F)c2)CCN(c2ncnc3c2[nH]c2ccccc23)CC1	inconclusive: 25.1 µM [inhibitor, single point]	
COc1ccccc1C(CNC(=O)c1ccc(NS(=O)(=O)c2ccc(F)c(C)c2)cc1)N(C)C (configuration not stated)	inconclusive: 6.31 µM [inhibitor, single point]	
CCCOc1ccc(C(=O)Nc2nc(C)c(Cc3ccc4c(c3)OCO4)s2)cc1	inconclusive: 7.08 µM [inhibitor, partial curve, poor fit]	
C=CCN(CC=C)C(=S)NC(=O)/C=C/c1ccccc1	inconclusive: 5.62 µM [inhibitor, single point]	

SMILES	Potency	activity, negative = inhibition
COc1cccc(-c2nc(CS(=O)(=O)CC(=O)Nc3cccc(C)c3C)c(C)o2)c1	inconclusive: 14.1 µM [inhibitor, single point]	
CC(=O)N(/N=C1\Sc2ccccc2C1=O)c1ccccc1		inactive: 8.34%
COCCn1c(C)cc(/C=C2/NC(=O)N(Cc3ccc(C)cc3)C2=O)c1C	inconclusive: 31.6 µM [inhibitor, single point]	
CCCCCCCCCn1c2c(c(=N)c3c1CCC3)CCC2	active: 4.47 µM	
O=C(Cn1c(SCC(=O)N2CCc3ccccc32)nc2ccccc21)NC1CCCC1	inconclusive: 6.31 µM [inhibitor, single point]	
COc1ccccc1-n1c(-c2ccc(Cl)cc2)c[nH]c1=S		inactive: -7.48%
CCC(=O)Oc1ccc2ccccc2c1CNC(=O)c1ccccc1	inconclusive: 6.31 µM [inhibitor, single point]	
CCNC(=O)N(C)c1c(CC)nc2ccc(C(=O)Nc3cccc(OCC(=O)N(C)C)c3)cn12		inactive: 6.95%
COc1ccc(S(=O)(=O)N(C)CC(=O)Nc2cccc(C(C)=O)c2)cc1Cl		inactive: -11.8%
COc1ccccc1C(=O)Nc1nnc(-c2ccc3c(c2)CCCC3)o1	inconclusive: 35.5 µM [inhibitor, single point]	
COc1cc(NC(=O)Nc2ccccc2)c(OC)cc1NC(=O)CN1CCCCC1	inconclusive: 35.5 µM [inhibitor, single point]	
O=S(=O)(NCC(Nc1ccc(Cl)cc1)c1ccccc1)c1ccccc1 (configuration not stated)	inconclusive: 25.1 µM [inhibitor, single point] and inconclusive: 20 µM [inhibitor, single point]	
COc1ccccc1NC(=O)CCNC(=O)C1CCN(S(=O)(=O)c2ccccc2)CC1		inactive: 6.75%
COC(=O)c1ccc(CSc2nc3ccc(C)cc3[nH]2)o1		inactive: -26.9%
CCN(CCCNC(=O)c1cc(Nc2ccccc2OC)nc2ccccc12)c1cccc(C)c1	inconclusive: 10 µM [inhibitor, partial curve, poor fit]	
Cc1noc(C)c1CSCC(=O)Nc1nc(-c2ccc(F)c(F)c2)cs1	inconclusive: 35.5 µM [inhibitor, single point]	
O=C(OCC(=O)N1CCc2ccccc21)[C@@H]1CC(O)CN1S(=O)(=O)c1ccccc1[N+](=O)[O-] (some centres not stated)		inactive: 0%
O=C(Nc1ncccc1O)c1ccc(C(=O)c2ccccc2)cc1		inactive: -26.3%
Cc1ccc(Sc2ccc(S(=O)(=O)Nc3ccc(CC(=O)O)cc3)cc2)cc1C	inconclusive: 14.1 µM [inhibitor, single point]	
Cc1cccc(OCC(=O)Nc2cc(C)c(O)c(-c3nc4ccccc4o3)c2)c1		inactive: 35.4%
Cc1ccc(NC(=O)c2ccccc2NS(=O)(=O)c2ccc(Cl)s2)cc1	inconclusive: 3.55 µM [inhibitor, full curve, poor fit]	
